Z-score data for 110 molecules are collected here from PubChem BioAssay AID488969 (Vanderbilt High Throughput Screening Facility, 2010).

Structures are written as SMILES. Whole data set: some 110,000 compounds, median “z-score” near -0.1, cut for the highest 2% near 2. Some of the results follow. Active and inactive are the calls of the source.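 The calls were made as follows: active = z-score in the third read window above 3 or below -3; inactive = the rest.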

The experiment concerns the target Metabotropic glutamate receptor 8 (Rattus norvegicus) (UniProt P70579). Put plainly: mGluR8 Gi/Go-coupled signaling modulation – cell-based, rat, thallium flux, HTS, primary screen (AID 488969). The settings on record: HEK293 rat mGluR8, GIRK (G protein-gated inwardly rectifying potassium channel) thallium flux, FluoZin2; at 10 µM; stronger effect = higher value; submaximal glutamate (EC20) added with thallium.
Sequence of UniProt P70579 (P70579 whole entry, looked up): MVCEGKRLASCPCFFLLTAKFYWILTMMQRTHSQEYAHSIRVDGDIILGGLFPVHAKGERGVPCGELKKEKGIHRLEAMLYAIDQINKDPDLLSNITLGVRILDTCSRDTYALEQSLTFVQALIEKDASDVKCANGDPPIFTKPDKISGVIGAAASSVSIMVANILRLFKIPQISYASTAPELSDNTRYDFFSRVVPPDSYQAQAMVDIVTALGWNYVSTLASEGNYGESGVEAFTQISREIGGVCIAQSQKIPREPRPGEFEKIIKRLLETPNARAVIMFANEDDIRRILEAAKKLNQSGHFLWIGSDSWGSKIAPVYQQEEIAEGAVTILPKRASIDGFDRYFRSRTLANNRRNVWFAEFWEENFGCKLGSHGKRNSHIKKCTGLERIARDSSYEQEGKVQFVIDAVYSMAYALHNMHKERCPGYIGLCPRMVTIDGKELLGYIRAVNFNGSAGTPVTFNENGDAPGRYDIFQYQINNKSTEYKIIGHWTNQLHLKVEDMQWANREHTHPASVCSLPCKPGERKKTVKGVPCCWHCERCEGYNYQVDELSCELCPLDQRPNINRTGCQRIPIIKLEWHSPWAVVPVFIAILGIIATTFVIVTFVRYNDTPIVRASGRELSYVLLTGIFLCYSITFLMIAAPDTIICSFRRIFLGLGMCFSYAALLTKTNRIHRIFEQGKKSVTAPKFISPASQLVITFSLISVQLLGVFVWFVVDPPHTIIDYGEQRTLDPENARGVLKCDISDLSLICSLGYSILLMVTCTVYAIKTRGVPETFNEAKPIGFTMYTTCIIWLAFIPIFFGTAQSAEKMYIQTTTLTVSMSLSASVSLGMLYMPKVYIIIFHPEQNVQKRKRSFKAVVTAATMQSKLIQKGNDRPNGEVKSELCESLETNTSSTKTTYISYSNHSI
For the molecule `Cc1cc(N/N=C/c2cccc(Cl)c2)nc(NCc2ccccc2)n1`, the z-score was -0.218.

In turn, `COc1ccc(Cc2nnc3c4cnn(C)c4ncn23)cc1` displayed a z-score of 1.03. `O=C(Nc1ccc(N2CCN(C(=O)c3ccc(Cl)cc3)CC2)cc1)c1cc2ccccc2o1` displayed a z-score of -0.0928. The molecule `CN1C(=S)SC(/[N+]([O-])=C\c2ccco2)C1(C)C` (stereo not given) yielded a z-score of 0.403. As for `Cc1ccccc1NC(=S)NN1CCN(C)CC1`, the figure is 0.228; as for `O=C(CSc1nnc(-c2ccccc2)o1)Oc1ccc(Br)cc1`, -0.623. Regarding `CCOC(=O)c1cnc2c(C)cccc2c1Nc1ccc(N2CCOCC2)cc1`, the z-score is -0.568. The same measure for `Cc1ccc(C(=O)N2CCCC(c3nc4c(nnn4Cc4ccccc4)c(=O)[nH]3)C2)cc1` (stereo not given): -0.0272; for `O=C(Nc1ccccc1)Nc1nnc(-c2ccccc2)o1`: -0.193; for `O=C(CSc1cn(CCNC(=O)c2cccs2)c2ccccc12)NC1CCCC1`: -0.245. As for `CN(CCCNC(=O)c1cn(C)c2ccc(S(=O)(=O)N(C)C)cc2c1=O)c1ccccc1`, the figure is -0.947; as for `CCOc1ccc(-n2c(Cc3cc(=O)[nH]c(=O)[nH]3)nnc2SCC(=O)NC2CCCC2)cc1`, 0.0889. Regarding `CCN(Cc1ccccc1)c1ccc(N=Nc2nn(C)c(C)c2[N+](=O)[O-])cc1`, the z-score is -0.00804. The same measure for `CC1(C)CC(=O)c2cc(OCC(=O)NCCCN3CCN(c4ccccc4F)CC3)ccc2O1`: -0.214. Take `CC(C)CN(C(=O)CN1CCN(S(=O)(=O)c2ccc3ccccc3c2)CC1)c1c(N)n(CC(C)C)c(=O)[nH]c1=O`: the z-score is -0.618. Turning to `COC(=O)c1ccccc1Nc1ccccc1`, the z-score is -0.166. As for `COc1ccc(NC(=O)C2(c3ccc(NC(=O)c4ccc(OC)cc4)cc3)CCCC2)cc1`, the figure is -0.668; as for `N#C/C(=C\c1ccc(-c2ccc([N+](=O)[O-])cc2Br)o1)C(=O)N1CCN(c2ccccc2)CC1`, -0.281.

Consider `CCn1nnc(-c2ccccc2NC(=O)c2cc(OC)cc(OC)c2)n1`, for which the z-score was -0.139.

Molecule `Oc1ccc(N=Nc2n[nH]c(-c3ccccc3)n2)cc1` registered a z-score of -0.716. With `Cc1cccc2c(Cl)cc(=O)[nH]c12`, the z-score is -0.111. In turn, `c1ccc(-c2nnnc3ccccc23)cc1` registered a z-score of -0.0458. As for `O=C(c1ccccc1)N1CCN=C1c1ccccc1`, the figure is -0.0705; as for `Cc1ccc(NC(=O)CN(c2ccccc2F)S(C)(=O)=O)cc1`, -0.00294. As for `Cc1cccc(CCNC(=O)C2CCC(CNc3c(N4CCCC4)c(=O)c3=O)CC2)c1` (stereo not given), the figure is -0.262; as for `CCN1C(=O)CC(N2CCN(c3ccc(OC)cc3)CC2)C1=O` (stereo not given), -0.889; as for `CCOC(=O)CSc1nnc(Cn2nnc(-c3ccccc3)n2)n1CC`, -0.507.

`COc1cccc(-n2nnnc2SCC(=O)Nc2ccc3c(c2)OCCO3)c1` came in with a z-score of -0.0922. As for `COc1cccc(Nc2ncnc3nc[nH]c23)c1`, the figure is -0.409; as for `COc1ccc2ccccc2c1/C=N/NC(=S)Nc1cc(S(=O)(=O)N2CCOCC2)ccc1N1CCOCC1`, -0.538; as for `COc1ccc(C(=O)CC(Nc2ccc([N+](=O)[O-])cc2)c2ccc(Cl)cc2)cc1` (stereo not given), -0.0244. The molecule `CC(SCc1ccccc1)C(=O)NN=C1CCN(C)CC1` (stereo not given) had a z-score of -0.315.

Turning to `COC(=O)c1c(NC(=S)Nc2ccccc2Cl)sc(C)c1C`, the z-score was determined as 0.827. Molecule `O=C(COc1cccc(Cl)c1)Nc1nc(-c2ccc(S(=O)(=O)N3CCOCC3)cc2)cs1` yielded a z-score of -0.0049. The same measure for `O=C1Nc2ncccc2OC1CCO` (stereo not given): 0.0395.

Molecule `Nc1c(C(=O)c2ccccc2)oc2ccccc12` returned a z-score of -0.433. As for `O=c1c2ccccc2c(-c2ccccc2)nn1Cc1ccccc1`, the figure is -1.25; as for `Cc1cc(C(C)(C)C)c(O)c(C)c1CC1=NCCN1`, 0.56; as for `O=C(NC(=S)NCc1cccnc1)c1ccccc1[N+](=O)[O-]`, -0.0397.

For the molecule `COCc1cc(C)nc2sc3c(=O)n(-c4cccc5ccccc45)nnc3c12`, the z-score is 0.206. `CCOC(=O)N1CCN(S(=O)(=O)c2cccs2)CC1` had a z-score of 0.106. The molecule `CC1C=CC(C)C(C(=O)O)C1C(=O)O` (stereo not given) displayed a z-score of 0.461. The molecule `Cc1cc(C)n(C(=O)c2ccc(C)c(S(=O)(=O)N3CCCC3)c2)n1` had a z-score of -0.143. The same measure for `Cc1cc(C)n(C(=O)c2ccccc2[N+](=O)[O-])n1`: -0.188. As for `COC(=O)c1sccc1NC(=O)CSc1nnnn1-c1ccccc1F`, the figure is -0.634; as for `CCOc1ccc(N2C(=O)C3CCCN3C2=O)cc1` (stereo not given), 0.418. In turn, `Cc1ccc(SCc2cc(=O)n3[nH]c(C)nc3n2)cc1` showed a z-score of -0.153.

In the case of `CCOC(=O)C1CCN(c2c(NCc3ccc(C(=O)NCCC(C)C)cc3)c(=O)c2=O)CC1`, the z-score is -0.0475. The molecule `Cc1ccc(Cn2c(CN3CCOCC3)nc3c2c(=O)[nH]c(=O)n3C)cc1` had a z-score of -0.0778. In the case of `Cc1ccc(S(=O)(=O)CCc2nnc(NC(=O)COc3cccc(C)c3)s2)cc1`, the z-score was -0.284. In the case of `CCOc1ccc(OCC)c(NC(=O)C2CCN(S(=O)(=O)c3c(C)noc3C)CC2)c1`, the z-score is -0.391.

For `O=C(Nc1ccccc1F)c1ccc(CSc2ccccc2)o1`, the z-score is -0.43.

`O=C(NCS(=O)(=O)c1ccccc1)c1ccccc1`: the z-score amounted to 0.54.

Take `COC(=O)C1=C(C)N(Cc2ccc(OC)c(OC)c2)C(=O)C1`: the z-score was -0.311. The same measure for `Cc1cccc(-n2ncc3c(NCc4cccs4)ncnc32)c1`: -0.705; for `Cc1cc2nc(/N=C(\N)NC(=O)N3c4ccccc4Sc4ccccc43)nc(C)c2cc1C`: -0.275. The same measure for `Cc1ccc(-c2cc(C(=O)NCc3cccs3)no2)cc1`: -0.229; for `CCOc1ccc(S(=O)(=O)NCC2CCCO2)cc1` (stereo not given): -0.242; for `O=C(N/N=C/c1ccc[nH]1)c1sc2ccccc2c1Cl`: 1.36. On to `Cc1cc(C(=O)NCc2ccccc2F)cs1`, for which the z-score is -0.288. `CCn1c(SCCC(=O)Nc2ccccc2)nnc1-c1ccc(OC)cc1` registered a z-score of 0.0208. Take `O=C(Nc1ccc2c(c1)OCCO2)C1CCN(c2cnccn2)CC1`: the z-score stood at 2.51. As for `CCOc1cccc(Oc2ccc(C(F)(F)F)cn2)c1`, the figure is -0.348; as for `CCOC(=O)CC1=C(C(=O)OCC)C(c2ccc(OC)c(OC)c2)C(C#N)=C(N)O1` (stereo not given), 0.0332; as for `CCOC(=O)c1c(NC(=O)CSc2nnnn2-c2ccc3c(c2)OCCO3)sc(C)c1C`, -0.255. The same measure for `O=C(NC1CCCCC1)C1CCN(S(=O)(=O)c2cccc3cccnc23)CC1`: -0.107; for `Cc1ccc(C)c(NC(=O)c2cc3ccccn3n2)c1`: 1.35; for `O=C(Cc1ccccc1)NC(NNc1ccccc1)(C(F)(F)F)C(F)(F)F`: -0.447. Take `COC(=O)CN(n1cnnc1)S(=O)(=O)c1ccc(C)cc1`: the z-score came to 0.214. As for `Clc1ccc(-c2cc(CSc3ccccc3)on2)cc1`, the figure is -0.0829; as for `CCCC(=O)NC(C)C(c1cccs1)N1CCN(c2ccccc2)CC1` (stereo not given), 0.275. As for `Cc1cccc(NC(=O)c2ccc([N+](=O)[O-])cc2Cl)n1`, the figure is -0.0529; as for `COc1ccc(CN2CCNC(=O)C2CC(=O)O)c(OC)c1` (stereo not given), 0.235; as for `CSc1nc(-c2ccccc2)nc2[nH]ccc(=O)c12`, -0.134. In the case of `O=C(CSc1nnc(-c2ccccc2)n1Cc1ccco1)Nc1ccc2c(c1)OCCO2`, the z-score came out at 0.217. As for `O=C(c1cccs1)N(Cc1ccccn1)Cc1ccco1`, the figure is -0.0776; as for `Cc1ccc(NC(=O)/C(=C/c2cccc(Br)c2)NC(=O)c2ccco2)cc1`, -0.0217. The same measure for `COC(=O)c1nn(-c2cccc(C(F)(F)F)c2)c(=O)cc1Sc1ccccn1`: -0.255; for `O=C(N=Nc1c(O)n(Cc2ccccc2)c2ccccc12)c1ccc(O)cc1`: -0.143.

`Cc1sc2nc(CN3CCCC3)nc(N3CCC(C(N)=O)CC3)c2c1C` had a z-score of -0.212. The same measure for `COc1ccc(C(=O)NCC(=O)N=Nc2c(O)n(Cc3ccccc3)c3ccccc23)cc1OC`: -0.274; for `Cc1cnc(NC(=O)COc2ccccc2Cl)s1`: active: 3.06; for `CC1C/C(=C\c2cccnc2)C(=O)/C(=C/c2cccnc2)C1` (stereo not given): -0.0889. The same measure for `CCOC(=O)c1c(C)[nH]c(C(=O)COC(=O)COc2ccc(OC)cc2)c1C`: 0.344. As for `O=[n+]1cc(-c2cccc3ccccc23)n([O-])c2c1CCC2`, the figure is -0.0689. As for `Cc1cccc(NC(=O)c2ccccc2[N+](=O)[O-])n1`, the z-score is -0.229. As for `CN(C)c1ccc(-c2nnn(Cc3ccccc3Br)n2)cc1`, the figure is -0.142; as for `O=C(NCCN1CCOCC1)c1ccc([N+](=O)[O-])cc1[N+](=O)[O-]`, 0.0637; as for `Cc1ccc(S(=O)(=O)/C(C#N)=C/c2c(N3CCOCC3)nc3ccccn3c2=O)cc1`, -0.398. The same measure for `CC(=O)Nc1cccc(OCC(=O)Nc2ccc(F)cc2)c1`: 0.0737; for `Cn1nnnc1SCC(=O)Nc1ccccc1[N+](=O)[O-]`: -0.196. As for `O=C(OCc1ccccc1)c1ccc(Br)o1`, the figure is 0.158.

Take `Cc1cc2cccc(C)c2nc1SCC(=O)N(C)c1nc(-c2ccccc2)cs1`: the z-score worked out at 0.00775. As for `CCC(=O)Nc1cccc(-c2nc3ccccc3o2)c1`, the figure is -1.43; as for `O=C(Nc1ccc(Oc2nnc(-c3ccccc3)c3ccccc23)cc1)c1ccccc1`, 0.0138. In turn, `Cn1c(=O)c(NC(=O)c2ccccc2)c2n(c1=S)CCCCC2` showed a z-score of -0.181.

As for `CCOc1ccc(Nc2nc(Cc3nnc(SCC(=O)c4ccc(C)c(C)c4)o3)cs2)cc1`, the z-score was found to be 0.217. As for `Cc1ccccc1NC(=O)N1C2CCCC1CC(NC(=O)C1CC1)C2` (stereo not given), the figure is 0.864; as for `CC(NCc1cccn1C)c1ccccc1` (stereo not given), -0.0825; as for `CC1CCc2c(sc(NC(=O)c3ccc(-c4ccccc4[N+](=O)[O-])o3)c2C#N)C1` (stereo not given), 0.0737. The same measure for `Cc1ccc(-n2c(-c3ccco3)nc3c(cnn3-c3ccc(C)cc3)c2=O)cc1`: -0.0771; for `FC(F)(F)c1nnc2c(Sc3ccccn3)nc3ccccc3n12`: 0.437. The molecule `CC(OC(=O)c1ccc2c(=O)n3c(nc2c1)CCCCC3)C(=O)Nc1ncc(Cl)cc1Cl` (stereo not given) gave a z-score of -1.16.

Take `C=CCN1C(=Nc2ccccc2)SC/C1=C\C(=O)OC`: the z-score worked out at 0.502. The same measure for `CC(C)Oc1cccc(C(=O)Nc2ccc(N3CCN(S(C)(=O)=O)CC3)cc2)c1`: -1.5. As for `Cc1cccc(NC(=O)N2CCCC2C(=O)NCc2cccs2)c1` (stereo not given), the figure is 0.181; as for `CCSc1nnc2n(-c3ccc(OC)cc3)c(=O)c3c4c(sc3n12)CCCC4`, -0.94; as for `COc1cc([N+](=O)[O-])ccc1NC(=O)CCCOc1cccc(C)c1`, -0.442. As for `Cc1ccc(S(=O)(=O)n2nc(OC(=O)c3c(-c4ccccc4Cl)noc3C)cc2N)cc1`, the figure is -1.4; as for `Oc1ccc2ccccc2c1C=Nc1cc(C(F)(F)F)ccc1N1CCCC1`, -0.252.
